# In PubChem BioAssay AID1347073 (National Center for Advancing Translational Sciences (NCATS), 2019):
# Screen size: about 45,000 compounds; about 200 (0.44%) were called active. Not shown: some 7% with an inconclusive outcome. Calls follow the shape of the dose curve; as a rule, active = well fitted activation curve with a large enough effect; inconclusive = small, poorly fitted or top-dose-only effect; inactive = no such curve, though single readings can be large or run the other way. Some of the results follow.
# Assay: qHTS of TDP-43 Inhibitors: NCGC Sytravon Library Screen; also: 0% is about no effect; nearly all actives have a fitted effect of over 55% in size
# Conditions: yeast TDP-43 toxicity rescue, BacTiter-Glo growth, 24 h; series mostly up to 46.1 µM; growth rescue (activation): at the top concentration
# Summary of the method: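 TDP-43-expressing yeast, pregrown in raffinose, seeded at OD600 0.02 in galactose medium with compound for 24 hr at 30 deg C. Growth read by BacTiter-Glo luminescence, so rescue of toxicity appears as activation.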
row,SMILES,growth rescue (activation)
1,O=C(/C=C/c1ccccc1)NCCSCc1ccccc1,inactive: 25.9%
2,O=C(/C=C/c1cccc(F)c1)N1CCN(c2ncccn2)CC1,inactive: 28.8%
3,O=[N+]([O-])c1ccc(/C=C/c2ccc3cccc([N+](=O)[O-])c3n2)cc1,inactive: 7.71%
4,Clc1ccccc1-c1nn2c(Cn3cnc4ccccc43)nnc2s1,inactive: 25.9%
5,COc1ccc(C(=O)N/C(=C\c2ccco2)C(=O)NC2CCS(=O)(=O)C2)cc1 (stereo unspecified),inactive: -0.617%
6,COc1ccc(N2C(=O)C3C(C2=O)C3(c2ccccc2)c2ccccc2)cc1 (stereo unspecified),inactive: 24.8%
7,Cc1cccnc1C(NC(=O)C1CCN(Cc2ccc(Cl)cc2)CC1)c1ccc(F)cc1 (stereo unspecified),inactive: 12.3%
8,O=C(O)c1ccc2ncc(NC(=O)c3ccc(F)cc3)c(=O)n2c1,inactive: -1.37%
9,Cc1ccc(NC(=O)Cn2nc(C)c([N+](=O)[O-])c2C)cc1C,inactive: -2.79%
10,COc1ccc(S(=O)(=O)Nc2nc3ccccc3nc2NCc2ccc3c(c2)OCO3)cc1,inactive: 8%
11,CN(C(=O)CSc1nncc2ccccc12)c1ccccc1,inactive: 12.8%
12,C/C(=N\NC(=O)CSc1nc(C)cc(C)n1)c1cccs1,inactive: -10.9%
13,CCOc1ccc(C(C)NC(=O)c2cccnc2OCC)cc1OCC (stereo unspecified),inactive: 5.59%
14,Cc1ccc(N/N=C(\C#N)C(=N)N2CCOCC2)cc1,inactive: -6.23%
15,COc1ccc2[nH]c3c(=O)n(CCCCC(=O)NCCC(C)C)c(=S)[nH]c3c2c1,inactive: -2.69%
16,CCC(NC(=O)NCCCn1ccnc1)(C(F)(F)F)C(F)(F)F,inactive: -13.3%

row,SMILES,growth rescue (activation)
1,CCOC(=O)c1cnc2c(C(F)(F)F)cccc2c1N1CCN(C)CC1,inactive: 13.2%
2,Fc1ccccc1C1c2[nH]c3ccccc3c2CCN1CCCn1cccn1 (stereo unspecified),inactive: -4.12%
3,N#C/C(=C/c1ccc(CNS(=O)(=O)c2ccccc2)o1)C(N)=O,inactive: 9.88%
4,CC(C)(C)NC(=O)c1ccccc1NC(=O)C1CCCO1 (stereo unspecified),inactive: -10.3%
5,CCc1nc2c(OCc3ccccc3OC)cccn2c1N(C)C(=O)C(C)C,inactive: -6.88%
6,CCCCOc1ccc(C(C)NC(=O)CCS(=O)(=O)Cc2ccccc2F)cc1 (stereo unspecified),inactive: 7.85%
7,O=C(/C=C/Nc1ccc(F)cc1Br)c1ccccc1,inactive: -8.52%
8,O=C(Nc1ccc(Cl)cc1)/C(=C1\CCCN1)[N+](=O)[O-],inactive: 6.88%
9,CN(C)c1ccc(Nc2nc(N)c([N+](=O)[O-])c(N3CCOCC3)n2)cc1,inactive: -3.69%
10,COc1cc(OC)c(C(=O)NCc2ccc3c(c2)OCO3)cc1OC,inactive: 1.27%
11,Cc1ccc(NC(=O)CCNC(=O)c2ccco2)cc1,inactive: -20.5%
12,O=C(Nc1ccc(N2CCOCC2)cc1)c1cnccn1,inactive: 6.97%
13,O=C1SCCC1NS(=O)(=O)c1ccc([N+](=O)[O-])cc1 (stereo unspecified),inactive: 3.6%
14,O=C(OCC(=O)N1CCCC1)c1c(Cl)ccc(Cl)c1Cl,inactive: 5.92%
15,COC(=O)c1ccc(NC(=O)Cc2ccc(F)cc2)cc1,inactive: 8.97%
